{
  "source": "PubChem BioAssay AID1345083",
  "about": "(National Center for Advancing Translational Sciences (NCATS), 2018)",
  "note": "Where “and” joins values, the source holds several entries; their conditions need not be identical. Equal entries are not always repeated. The whole screen tested about 94,000 compounds, of which about 6,200 (6.6%) were called active. This list was built around the results that the source calls inconclusive (neither active nor inactive); the mix of calls is not that of the screen. The call rests on the fitted dose curve; in most records, active means well fitted inhibition curve with a large enough effect; inconclusive means small, poorly fitted or top-dose-only effect; inactive means flat fitted curve, though single readings scatter. Potencies beside an inconclusive call are fits to weak or partial responses and may not hold up. Potency means the concentration at half of the fitted maximal effect; tags describe the fitted curve by direction and shape.",
  "data": [
    {"assay": "Cytotoxic Profiling in HEK 293 Cell Line of Diverse Libraries Using Quantitative High-Throughput Screening; further: nearly all actives have a fitted effect of over 60% in size", "conditions": "HEK 293 viability, ATP luminescence (CellTiter-Glo), 48-72 h; series mostly up to 115 µM", "how_it_was_run": "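qHTS cytotoxicity; HEK 293, 250 cells/well; compound pinned; 48 or 72 hr, 37 degree Celsius, 5% CO2, 95% humidity; CellTiter-Glo, 10 min RT; luminescence (ATP).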", "values": [
      {"smiles": "CCCNC(=O)N1CCC(N2CC(OCCOC)C23CCCCC3)CC1", "note": "(configuration not stated)", "Potency": "inactive"},
      {"smiles": "Cc1cc(F)ccc1OC1CN(C(=O)c2ccc3c(c2)OCO3)C1", "Potency": "inconclusive: 70.8 µM [inhibitor, partial curve, poor fit]"},
      {"smiles": "CN1CCN(Cc2nc(C3(O)CCN(Cc4ccccc4)CC3)cs2)CC1", "Potency": "inconclusive: 112 µM [inhibitor, partial curve, poor fit]"},
      {"smiles": "O=C1CCN(S(=O)(=O)c2ccccc2)CCCN(Cc2cccc(F)c2)CCN1", "Potency": "inactive"},
      {"smiles": "O=C(Nc1ccc([C@@H](O)[C@H]2COCC(=O)N2CC2CC2)cc1)c1ccc(F)cc1", "Potency": "inactive"},
      {"smiles": "Cc1ccc(CNC(=O)Cn2c(N3CCN(c4ccccc4)CC3)nc(C)cc2=O)cc1", "Potency": "inconclusive: 50.1 µM [inhibitor, partial curve, poor fit]"},
      {"smiles": "COC(=O)[C@@H]1Cc2ncn(C)c2CN1S(=O)(=O)c1ccc(Cl)cc1", "Potency": "inactive"},
      {"smiles": "O=C1CO[C@H]2CN(Cc3cccnc3)C[C@H]2N1Cc1cccc(C(F)(F)F)c1", "Potency": "inactive"},
      {"smiles": "O=C1CC(c2noc(-c3ccco3)n2)CN1C1CCCCC1", "note": "(configuration not stated)", "Potency": "inactive"},
      {"smiles": "CC1Oc2ccc(NC(=O)c3ccc(F)cc3)cc2CN(Cc2ccccc2Cl)C1=O", "note": "(configuration not stated)", "Potency": "inconclusive: 28.2 µM [inhibitor, full curve, poor fit]"},
      {"smiles": "Cc1ccsc1-c1[nH]nc2ncc(-c3ccc(CO)cc3)nc12", "Potency": "inconclusive: 56.2 µM [inhibitor, partial curve, poor fit]"},
      {"smiles": "CCc1[nH]c2ccc(CNC(=O)c3coc(CN4CCOCC4)c3)cc2c1C", "Potency": "inactive"},
      {"smiles": "CCN1C(=O)C2CC3(CCN(C(=O)C4CCCCC4)CC3)CN2C1=O", "note": "(configuration not stated)", "Potency": "inconclusive: 79.4 µM [inhibitor, single point]"},
      {"smiles": "N#Cc1cccc(CN2CCC[C@H]2c2nc(-c3ccc(OC4CCCCC4)nc3)no2)c1", "Potency": "inconclusive: 100 µM [inhibitor, partial curve, poor fit]"},
      {"smiles": "O=C(c1ccc2cc[nH]c2c1)N1CCN(C(=O)c2nnn3c2COC(c2ccccc2)C3)CC1", "note": "(configuration not stated)", "Potency": "inconclusive: 15.8 µM [inhibitor, full curve]"},
      {"smiles": "COc1ccccc1-c1ccc(CN2CCCCC2C(=O)N2CCC(c3ccccc3)CC2)cc1", "note": "(configuration not stated)", "Potency": "active: 25.1 µM and inconclusive: 39.8 µM [inhibitor, full curve, poor fit]"},
      {"smiles": "COc1ccc2nc3n(c2c1)[C@@H](CNCc1ccc(S(C)(=O)=O)cc1)COC3", "Potency": "inactive"},
      {"smiles": "Cc1cc(NC(=O)N2CCCC(Cn3cnc4cccnc43)C2)ccc1Br", "note": "(configuration not stated)", "Potency": "inconclusive: 50.1 µM [inhibitor, partial curve, poor fit]"},
      {"smiles": "Cc1cc(C)cc(C(=O)NC2CCN(c3cc(-c4ccc(F)cc4)[nH]n3)CC2)c1", "Potency": "inconclusive: 39.8 µM [inhibitor, single point]"},
      {"smiles": "COC(=O)N(Cc1cccc(N2CCN([S+](=O)([O-])c3c(Cl)cccc3Cl)CC2)c1F)C(C)C", "Potency": "inconclusive: 8.91 µM [inhibitor, full curve, poor fit]"},
      {"smiles": "O=C(CCc1ccccc1)N1CCCC(n2cc(-c3nc(-c4ccccc4)no3)nn2)C1", "note": "(configuration not stated)", "Potency": "active: 44.7 µM"},
      {"smiles": "COc1ccc(C(CC(=O)N(C)Cc2ccccn2)c2ccccc2)cc1", "note": "(configuration not stated)", "Potency": "inconclusive: 22.4 µM [inhibitor, full curve, poor fit]"},
      {"smiles": "O=C(c1cccc(F)c1)N1CCC(n2cc(-c3nc(-c4ccccc4)no3)nn2)C1", "note": "(configuration not stated)", "Potency": "inconclusive: 39.8 µM [inhibitor, partial curve, poor fit]"},
      {"smiles": "CNC(=O)c1cc(C2CC2)nc2c1c(C1CCCN(C(=O)c3ccncc3)C1)nn2C", "note": "(configuration not stated)", "Potency": "inactive"},
      {"smiles": "COc1cccc(CN2CCCC(c3nc(-c4cccnc4)no3)CCNC(=O)CC2)c1", "note": "(configuration not stated)", "Potency": "inconclusive: 44.7 µM [inhibitor, partial curve, poor fit]"},
      {"smiles": "COCCN1C(=O)CCc2cc(NC(=O)c3ccc(Br)o3)ccc21", "Potency": "inconclusive: 89.1 µM [inhibitor, single point]"},
      {"smiles": "COCC1CN(C2CCC2)CC12CCN(C(=O)c1cccc(C)c1)CC2", "note": "(configuration not stated)", "Potency": "inconclusive: 50.1 µM [inhibitor, partial curve, poor fit]"},
      {"smiles": "COCC(=O)NC1CCC12CCN(Cc1ccc(C)o1)CC2", "note": "(configuration not stated)", "Potency": "inconclusive: 63.1 µM [inhibitor, partial curve, poor fit]"},
      {"smiles": "COCCN1C(=O)[C@@H]2C[C@@H](CN2C(C)C)Oc2ccccc21", "Potency": "inconclusive: 126 µM [inhibitor, single point]"},
      {"smiles": "O=C1CC(c2noc(-c3cccc(F)c3)n2)CN1C1CCCCC1", "note": "(configuration not stated)", "Potency": "inconclusive: 89.1 µM [inhibitor, single point]"},
      {"smiles": "CN(Cc1ccc(N2CCCCC2)cc1)C(=O)c1ccc2c(c1)C(O)CCCCCN2C", "note": "(configuration not stated)", "Potency": "active: 35.5 µM"},
      {"smiles": "COc1ccc(N2CCN(C(=O)Cn3c(N4CCc5ccccc5C4)nc(C)cc3=O)CC2)cc1", "Potency": "inconclusive: 89.1 µM [inhibitor, single point]"},
      {"smiles": "COC(=O)CNC(=O)N1CC[C@@H]2COC(=O)N(Cc3ccccc3)[C@@H]2C1", "Potency": "inactive"},
      {"smiles": "COc1ccccc1-c1cc(C(=O)Nc2ccccc2Cl)c2cnn(C)c2n1", "Potency": "inconclusive: 56.2 µM [inhibitor, partial curve, poor fit]"},
      {"smiles": "COc1ccc(NC(=O)[C@@H]2C[C@H](c3cccc(C(F)(F)F)c3)N(Cc3cnn(C)c3)C2)cc1", "Potency": "inconclusive: 79.4 µM [inhibitor, partial curve]"},
      {"smiles": "CC(C)NC(=O)C1COC2(CCN(C(=O)c3cccc(Cl)c3)CC2)N1C(=O)c1ccc(F)cc1", "note": "(configuration not stated)", "Potency": "inconclusive: 100 µM [inhibitor, single point]"},
      {"smiles": "FC(F)(F)c1ccc2nc([C@H]3CCN(Cc4ccccn4)C3)[nH]c2c1", "Potency": "active: 44.7 µM"},
      {"smiles": "COc1ccc(-c2noc([C@@H]3CCCN3C(=O)C3(c4ccc(OC)cc4)CC3)n2)cc1", "Potency": "inconclusive: 50.1 µM [inhibitor, partial curve, poor fit]"},
      {"smiles": "Cc1ccc(-c2cc(O)c3c(c2)CNCCO3)cc1", "Potency": "inconclusive: 70.8 µM [inhibitor, partial curve, poor fit]"},
      {"smiles": "CCOc1ccccc1NC(=O)N1CCC(n2c(C)cnc2-c2cccnc2)C1", "note": "(configuration not stated)", "Potency": "inactive"},
      {"smiles": "CO[C@@H]1COCC[C@H]1NC(=O)CCc1ccc(-c2ccc(Cl)cc2)[nH]1", "Potency": "inconclusive: 56.2 µM [inhibitor, partial curve, poor fit]"},
      {"smiles": "COc1ccc(-c2nc(C(C)C)nc3c2CCN(C(=O)Cc2cccc(Cl)c2)CC3)cc1", "Potency": "inconclusive: 50.1 µM [inhibitor, partial curve, poor fit]"},
      {"smiles": "CCOCCOC1CCN(S(=O)(=O)c2c(C)noc2C)CC1", "Potency": "inactive"},
      {"smiles": "CN(C)[C@H]1CCCCN(C(=O)CC2CCN(Cc3ccccc3)CC2)C1", "Potency": "inconclusive: 50.1 µM [inhibitor, partial curve, poor fit]"},
      {"smiles": "COc1ccc(-c2nc(C(C)C)nc3c2CCN(C(=O)c2ccccc2Cl)CC3)cc1", "Potency": "inconclusive: 56.2 µM [inhibitor, partial curve, poor fit]"},
      {"smiles": "Cc1cc(C(=O)N2CCC(c3nc(-c4ccccc4)no3)C2)n[nH]1", "note": "(configuration not stated)", "Potency": "inconclusive: 56.2 µM [inhibitor, partial curve, poor fit]"},
      {"smiles": "COc1ccccc1OCc1cc(C(=O)N2CCCCCCCC2)n[nH]1", "Potency": "inconclusive: 79.4 µM [inhibitor, partial curve, poor fit]"},
      {"smiles": "CC1=NS(=O)(=O)N(Cc2ccccc2)C=C1C(=O)OCc1nc(-c2cccs2)no1", "Potency": "inconclusive: 44.7 µM [inhibitor, partial curve, poor fit]"},
      {"smiles": "CCOC(=O)C(Cc1cccc(N2CCN(C(=O)c3ccccc3C(F)(F)F)CC2)c1)OC", "note": "(configuration not stated)", "Potency": "inconclusive: 56.2 µM [inhibitor, partial curve, poor fit]"},
      {"smiles": "COc1ccccc1C(=O)N1CCn2c(nn(-c3ccc(Cl)cc3)c2=O)C1", "Potency": "inconclusive: 79.4 µM [inhibitor, partial curve, poor fit]"},
      {"smiles": "CCc1noc(-c2cn(C3CCCN(C(=O)c4ccc(C(C)(C)C)cc4)C3)nn2)n1", "note": "(configuration not stated)", "Potency": "inconclusive: 79.4 µM [inhibitor, partial curve, poor fit]"},
      {"smiles": "COC(=O)CNC(=O)C1CCN(C(=O)c2ccc(-c3cncnc3)cc2)CC1", "Potency": "inactive"},
      {"smiles": "O=C(CC1CCCCC1)N1CCCC(c2noc(COc3ccccc3F)n2)C1", "note": "(configuration not stated)", "Potency": "inconclusive: 50.1 µM [inhibitor, partial curve, poor fit]"},
      {"smiles": "Cc1ccc(OCc2nc(C3CCN(C(=O)c4ccncc4)CC3)no2)cc1", "Potency": "inconclusive: 79.4 µM [inhibitor, partial curve, poor fit]"},
      {"smiles": "O=C(O)CC[C@@H]1CN(C(=O)Cc2ccc(CO)cc2)CC[C@@H]1N1CCOCC1", "Potency": "inactive"},
      {"smiles": "O=C(Nc1cccc(-c2ccc(N3CCCC3)nn2)c1)c1c(F)cccc1F", "Potency": "active: 39.8 µM"},
      {"smiles": "COc1ccc(C(=O)N[C@H]2CO[C@H]3[C@@H]2OC[C@@H]3n2nnnc2-c2cccc(OC)c2)cc1", "Potency": "inactive"},
      {"smiles": "CN1C(=O)C2(CCN(S(=O)(=O)c3ccccc3)C2)c2ccccc21", "note": "(configuration not stated)", "Potency": "inconclusive: 63.1 µM [inhibitor, full curve, poor fit]"},
      {"smiles": "CCCNC(=O)Cc1csc2nc(C)c(-c3cc(C)n(-c4ccc(Cl)c(Cl)c4)n3)c(=O)n12", "Potency": "inactive"},
      {"smiles": "Fc1ccc(OC2CN(Cc3ccsc3)C2)c(F)c1", "Potency": "inconclusive: 126 µM [inhibitor, single point]"},
      {"smiles": "COc1ccc(CN2C[C@@H]3OCC(=O)N(c4ccccc4)[C@@H]3C2)cc1", "Potency": "inconclusive: 89.1 µM [inhibitor, partial curve, poor fit]"},
      {"smiles": "O=C(NC1CC1)c1ccc2oc(-c3ccnc(Cl)c3)nc2c1", "Potency": "inconclusive: 35.5 µM [inhibitor, partial curve, poor fit]"}
    ]}
  ]
}
